Source: the supplement of paper PMC4967469

How the values were obtained:
Test in all cases: Viability of human cancer cell lines after 72 h of drug (GDSC screen)
(5Z)-7-Oxozeaenol = compound: COc1cc(O)c2c(c1)/C=C/C[C@H](O)[C@H](O)C(=O)/C=C\C[C@H](C)OC2=O [(5Z)-7-Oxozeaenol]; conditions: top dose 10 µM; top dose inferred
Method: (§1)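 Human cancer cell lines in 384-well plates, medium with 10% serum, drug for 72 h over a 256-fold dose range (nine 2-fold or five 4-fold steps up to the top dose). Adherent lines were fixed and stained with the nucleic acid dye Syto60, suspension lines read with resazurin; signal relative to control wells, capped at 0 and 100%. One two-parameter sigmoid per drug and line, fitted in a mixed model over all curves with the slope shared within a line.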

MPS-1-IN-1 = compound: COc1cc(N2CCC(O)CC2)ccc1Nc1cc(Nc2ccccc2S(=O)(=O)C(C)C)c2cc[nH]c2n1 [MPS-1-IN-1]; conditions: top dose 20 µM; top dose inferred
Method: as §1

Zibotentan = compound: COc1nc(C)cnc1NS(=O)(=O)c1cccnc1-c1ccc(-c2nnco2)cc1 [Zibotentan]; conditions: top dose 20 µM; top dose inferred
Method: as §1

ABT-888 = compound: C[C@]1(c2nc3c(C(N)=O)cccc3[nH]2)CCCN1 [ABT-888]; conditions: top dose 5 µM; top dose inferred
Method: as §1

ABT-869 = compound: Cc1ccc(F)c(NC(=O)Nc2ccc(-c3cccc4[nH]nc(N)c34)cc2)c1 [ABT-869]; conditions: top dose 1.024 µM; top dose inferred
Method: as §1

CP466722 = compound: COc1cc2ncnc(-n3nc(-c4ccccn4)nc3N)c2cc1OC [CP466722]; conditions: top dose 16 µM; top dose inferred
Method: as §1

GSK269962A = compound: CCn1c(-c2nonc2N)nc2cnc(Oc3cccc(NC(=O)c4ccc(OCCN5CCOCC5)cc4)c3)cc21 [GSK269962A]; conditions: top dose inferred
Method: as §1

QL-X-138 = compound: C=CC(=O)Nc1cc(-n2c(=O)ccc3cnc4ccc(-c5cn[nH]c5)cc4c32)ccc1C [QL-X-138]; conditions: top dose 10.24 µM; top dose inferred
Method: as §1

CMK = compound: Cc1ccc(-c2c(C(=O)CCl)n(CCCO)c3ncnc(N)c23)cc1 [CMK]; conditions: top dose 4 µM; top dose inferred
Method: as §1

CHIR-99021 = compound: Cc1cnc(-c2cnc(NCCNc3ccc(C#N)cn3)nc2-c2ccc(Cl)cc2Cl)[nH]1 [CHIR-99021]
Method: as §1

Cytarabine = compound: Nc1ccn([C@@H]2O[C@H](CO)[C@@H](O)[C@@H]2O)c(=O)n1 [Cytarabine]; conditions: top dose 2 µM
Method: as §1

KU-55933 = compound: O=c1cc(-c2cccc3c2Sc2ccccc2S3)oc(N2CCOCC2)c1 [KU-55933]; conditions: top dose 10 µM
Method: as §1

Thapsigargin = compound: C/C=C(/C)C(=O)O[C@H]1C(C)=C2[C@H]([C@@H]1OC(=O)CCCCCCC)[C@@](C)(OC(C)=O)C[C@H](OC(=O)CCC)[C@@]1(O)[C@H]2OC(=O)[C@@]1(C)O [Thapsigargin]; conditions: top dose 0.512 µM; top dose inferred
Method: as §1

[1] = top dose 2.5 µM, screen: GDSC drug entry 127
[2] = top dose 5 µM, screen: GDSC drug entry 1192
[3] = top dose 2.56 µM, screen: GDSC drug entry 154
[4] = top dose 10 µM, screen: GDSC drug entry 1241, top dose inferred

Cell Line	AUC ((5Z)-7-Oxozeaenol)	IC50 ((5Z)-7-Oxozeaenol)	AUC (MPS-1-IN-1)	IC50 (MPS-1-IN-1)	AUC (Zibotentan)	IC50 (Zibotentan)	AUC (ABT-888)	IC50 (ABT-888)	AUC (ABT-869)	IC50 (ABT-869)	AUC (CP466722)	IC50 (CP466722)	AUC (GSK269962A; [1])	IC50 (GSK269962A; [1])	AUC (GSK269962A; [2])	IC50 (GSK269962A; [2])	AUC (QL-X-138)	IC50 (QL-X-138)	AUC (CMK)	IC50 (CMK)	AUC (CHIR-99021; [3])	IC50 (CHIR-99021; [3])	AUC (CHIR-99021; [4])	IC50 (CHIR-99021; [4])	AUC (Cytarabine)	IC50 (Cytarabine)	AUC (KU-55933)	IC50 (KU-55933)	AUC (Thapsigargin)	IC50 (Thapsigargin)
LB771-HNC (head and neck, adherent)	0.916	> 10 µM	0.832	17.5 µM	0.981	> 20 µM	0.872	> 5 µM	0.975	> 1.02 µM	0.879	> 16 µM	0.961	> 2.5 µM	0.937	> 5 µM	0.85	> 10.2 µM	0.955	> 4 µM	0.98	> 2.56 µM	0.976	> 10 µM	0.854	> 2 µM	0.977	> 10 µM	0.194	0.00297 µM
LB1047-RCC (kidney, adherent)	0.499	0.62 µM	0.922	> 20 µM	0.983	> 20 µM	0.983	> 5 µM	0.96	> 1.02 µM	0.777	7.28 µM	0.934	> 2.5 µM	0.827	3.59 µM	0.774	4.53 µM	0.802	2.26 µM	0.899	> 2.56 µM	0.898	> 10 µM	0.506	0.13 µM	0.908	> 10 µM	0.312	0.00883 µM
LB2518-MEL (melanoma, adherent)	0.657	1.75 µM	0.938	> 20 µM	0.982	> 20 µM	0.987	> 5 µM	0.977	> 1.02 µM	0.973	> 16 µM	0.792	1.2 µM	0.983	> 5 µM	0.987	> 10.2 µM	0.961	> 4 µM	0.89	> 2.56 µM	0.954	> 10 µM	0.941	> 2 µM	0.986	> 10 µM	0.334	0.0108 µM
LC4-1 (lymphoblastic leukaemia, suspension)	0.573	1.01 µM	0.867	> 20 µM	0.973	> 20 µM	0.984	> 5 µM	0.984	> 1.02 µM	0.623	2.27 µM	0.964	> 2.5 µM	0.846	4.26 µM	0.334	0.21 µM	0.958	> 4 µM	0.968	> 2.56 µM	0.894	> 10 µM	0.942	> 2 µM	0.981	> 10 µM	0.571	0.0512 µM
LOUCY (T-cell lymphoblastic leukaemia, suspension)	0.639	1.4 µM	0.852	11.3 µM	0.991	> 20 µM	0.992	> 5 µM	0.601	0.115 µM	0.523	1.14 µM	0.797	0.944 µM	0.604	0.57 µM	0.344	0.258 µM	0.962	> 4 µM	0.988	> 2.56 µM	0.963	> 10 µM	0.845	1.07 µM	0.929	> 10 µM	0.533	0.0386 µM
LP-1 (myeloma, suspension)	0.822	4.58 µM	0.838	10.3 µM	0.987	> 20 µM	0.993	> 5 µM	0.983	> 1.02 µM	0.738	4.14 µM	0.991	> 2.5 µM	0.979	> 5 µM	0.523	0.73 µM	0.903	3.67 µM	0.993	> 2.56 µM	0.972	> 10 µM	0.99	> 2 µM	0.98	> 10 µM	0.308	0.0103 µM
LS-513 (large intestine, adherent)	0.57	0.977 µM	0.755	7.03 µM	0.986	> 20 µM	0.983	> 5 µM	0.977	> 1.02 µM	0.871	> 16 µM	0.987	> 2.5 µM	0.976	> 5 µM	0.832	6.94 µM	0.964	> 4 µM	0.951	> 2.56 µM	0.97	> 10 µM	0.565	0.19 µM	0.987	> 10 µM	0.709	0.128 µM
LS-1034 (large intestine, adherent)	0.78	4.57 µM	0.764	7.98 µM	0.981	> 20 µM	0.974	> 5 µM	0.986	> 1.02 µM	0.867	> 16 µM	0.986	> 2.5 µM	0.969	> 5 µM	0.887	> 10.2 µM	0.977	> 4 µM	0.984	> 2.56 µM	0.977	> 10 µM	0.977	> 2 µM	0.977	> 10 µM	0.465	0.0254 µM

The IC50 comes from the fitted curve, where viability falls to half of the control; a fit beyond the top or the lowest dose is shown as a bound at that dose. AUC sums up the same curve from the lowest dose to the 256-fold higher top dose; it is 1 without any effect and falls as sensitivity rises. For part of these data: An inferred top dose was calculated from the reported fits. For part of these data: An entry number marks a drug with two screens in the source, which often give different values.
